PubChem BioAssay AID624418 (National Center for Advancing Translational Sciences (NCATS), 2012)
The whole screen tested about 410,000 compounds, of which about 530 (0.13%) were called active. This list was built around the results that the source calls inconclusive (neither active nor inactive); the mix of calls is not that of the screen. The call rests on the fitted dose curve; in most records, active means well fitted inhibition curve with a large enough effect; inconclusive means small, poorly fitted or top-dose-only effect, or another doubt; inactive means no such curve, though single readings can be large or run the other way. Potencies beside an inconclusive call are fits to weak or partial responses and may not hold up.

Experiment: qHTS of GLP-1 Receptor Inverse Agonists: Cytotox Screen
Settings: HEK293 cAMP-luciferase reporter cells, luminescence, 24 h; series mostly up to 38.3 µM
Procedure, shortened: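 MLSMR compounds, 24 hr on cells at 37 deg C/5% CO2; luminescence after luciferase reagent (12 min RT). Inhibition counted as the undesired cytotoxic outcome.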
Potency means the concentration at half of the fitted maximal effect.

Compound | Potency
CCN1CCN(c2nc(-c3ccccn3)nc3ccccc23)CC1 | inconclusive: 3.16 µM [inhibitor, full curve, poor fit]
COC(=O)CN1C(=O)CSc2ccc(S(=O)(=O)Nc3cccc(C)c3)cc21 | inactive
O=C(NCCC1=CCCCC1)C1CCN(Cc2cnn(-c3ccccc3)c2-n2cccc2)CC1 | inconclusive: 12.6 µM [inhibitor, partial curve, poor fit]
NC(=O)C1CCN(c2nc(-c3ccccc3)nc3ccccc23)CC1 | inconclusive: 11.2 µM [inhibitor, partial curve, poor fit]
COCCNC(=S)N(CCc1c(C)[nH]c2ccc(OC)cc12)Cc1cccnc1 | inactive
Cc1ccc(/C=C(\NC(=O)c2ccc(C)cc2)c2nc(=S)[nH][nH]2)cc1 | inconclusive: 28.2 µM [inhibitor, single point]
Cc1ccc(S(=O)(=O)Nc2ccc(NC(=O)Nc3cccc(C(F)(F)F)c3)cc2)cc1 | inconclusive: 22.4 µM [inhibitor, single point]
Cc1cccc(C(=O)N/N=C/c2ccccn2)c1 | inconclusive: 17.8 µM [inhibitor, single point]
CCC(CO)Oc1cc(NCc2ccc(O)cc2)c2ncn(C(C)C)c2c1 (stereo not drawn) | inconclusive: 5.01 µM [inhibitor, partial curve]
Cc1c(NC(=O)Nc2ccc(F)cc2F)c(=O)n(-c2ccccc2)n1C | inconclusive: 14.1 µM [inhibitor, single point]
Cc1ccc(C(=O)CCS(=O)(=O)c2ccc(Br)cc2)cc1 | inactive
FC(F)(F)c1cccc(Cn2c3[n+](c4ccc(C(F)(F)F)cc42)CCCCC3)c1 | inconclusive: 28.2 µM [inhibitor, single point]
COc1ccc(C2=NS(=O)(=O)N(C)C(C(=O)N3CCC(C)CC3)=C2)cc1 | inconclusive: 3.55 µM [inhibitor, full curve, poor fit]
Cc1ccc(S(=O)(=O)NCC2(c3ccccc3)CCN(C)CC2)cc1 | inactive
O=C(N/N=C/c1c[nH]c2ccccc12)C1COc2ccccc2O1 (stereo not drawn) | inconclusive: 10 µM [inhibitor, partial curve]
CCOC(=O)N1C(=O)C2(CCCCC2)N(c2ccccc2Cl)C1=S | inconclusive: 10 µM [inhibitor, partial curve]
Cc1nc2ccccc2c(N)c1C(=O)/C=C/c1ccccc1 | inconclusive: 11.2 µM [inhibitor, partial curve, poor fit]
COC(=O)/C(=C\c1c(OC)cc(OC)cc1OC)C(=O)c1ccc2c(c1)OCO2 | inconclusive: 0.501 µM [inhibitor, full curve, poor fit]
O=c1[nH]c(NCc2ccco2)nnc1Cc1ccccc1Cl | inconclusive: 4.47 µM [inhibitor, full curve]
Cc1ccccc1-n1c(-c2csc(C)c2C)n[nH]c1=S | inconclusive: 28.2 µM [inhibitor, single point]
Clc1ccc(-c2nnc3n2-c2ccccc2SC3)cc1 | inconclusive: 22.4 µM [inhibitor, single point]
Cc1ccc(-c2c(C(=O)N3CCN(c4cccc(C)c4)C(C)C3)oc(=O)c3ccccc23)cc1 (stereo not drawn) | inactive

Compound | Potency
COc1ccc(/C=N/NC(=O)c2ccccc2Cl)cc1CSc1nc2ccccc2s1 | inconclusive: 2 µM [inhibitor, partial curve, poor fit]
C/C(=N\NC(=O)c1ccccc1)c1cc2cc([N+](=O)[O-])ccc2oc1=O | inconclusive: 22.4 µM [inhibitor, single point]
CN1C(=O)/C(=C/c2ccccc2OCc2cccc(F)c2)N(C)C1=S | inactive
Cc1ccccc1C(=O)Nc1nnc(CC(=O)N/N=C/c2ccncc2)s1 | inconclusive: 20 µM [inhibitor, single point]
Cc1ccccc1C(=O)Nc1cc2c(cc1N1CCCCC1)n(C)c(=O)n2C | inactive
COc1ccc(-c2nc3ccccc3c(=O)n2CCCN2CCOCC2)cc1 | inconclusive: 11.2 µM [inhibitor, partial curve, poor fit]
c1ccc(CN2CCOCC2)nc1 | inactive
N#CC[C@H](Cc1ccccc1)N1CCN(CCc2ccccc2)CCC1=O | inconclusive: 0.501 µM [inhibitor, full curve, poor fit]
CC1=NN(c2ccccc2)C(=O)/C1=C/c1c(O)n(-c2ccc(F)c(Cl)c2)[nH]c1=O | inconclusive: 31.6 µM [inhibitor, single point]
O=C(Oc1c(CN2CCOCC2)cc(Cl)c2cccnc12)c1ccccc1Br | inconclusive: 0.501 µM [inhibitor, full curve, poor fit]
Cc1cc(NC(=O)NC(=O)c2ccccc2NC(=O)C(C)N)ccc1Oc1ncc(Br)cn1 (stereo not drawn) | inconclusive: 0.794 µM [inhibitor, full curve, poor fit]
CC(C)C(=O)N1CCN(c2ccccc2NC(=S)NC(=O)c2ccco2)CC1 | inactive
COCc1nnc(NC(=O)c2ccc(OC)cc2OC)s1 | inconclusive: 2.51 µM [inhibitor, partial curve, poor fit]
Cc1cc(C(=O)N2CCN(C/C=C/c3ccccc3)CC2)no1 | inactive
CCc1ccccc1NS(=O)(=O)c1ccc2c(c1)CCCN2C(=O)C1CCC1 | inactive
COc1ccc(-c2csc(Nc3cccnc3)n2)cc1OC | inconclusive: 12.6 µM [inhibitor, partial curve, poor fit]
COc1ccc(N2CCN(C(=O)CN(c3ccccc3)S(=O)(=O)c3ccc(OC)cc3)CC2)cc1 | inactive
O=c1c2ccccc2cnn1Cc1ccc(Cl)c(Cl)c1 | inactive
Cc1cc(C)n2ncc(C(=O)NCc3ccc(Cl)cc3)c2n1 | inactive
COc1cccc(NC(=O)CN(C)C(=O)COc2ccccc2Cc2ccccc2)c1 | inconclusive: 11.2 µM [inhibitor, single point]
Cc1ccc(S(=O)(=O)N2C[C@H]3[C@H]4C(=O)N(c5ccccc5)C(=O)[C@H]4C[C@H](OC(=O)NCc4ccccc4F)[C@@]3(O)C2)cc1 | inconclusive: 0.501 µM [inhibitor, full curve, poor fit]
